Test results published in the supplement of paper PMC4466236.
The full ranking holds about 33,000 sequences; the median of “E-score (dimensionless, -0.5 to 0.5)” is about -0.058, and the highest 2% start at about 0.35. Some of the results follow.

system: MvaT; assay: PBM 8-mer E-score (mean of HK and ME arrays) (E-score (dimensionless, -0.5 to 0.5)); higher = stronger relative binding preference; most listed sequences are background and not binding sites
Procedure: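 Protein binding microarray: GST-tagged full-length MvaT (P. aeruginosa PAO1) bound to two universal double-stranded 60-mer arrays (ME and HK), each with a constant 25-mer primer and a variable 35-mer region covering all 8-mers. The 8-mer E-score (rank-based, range -0.5 to 0.5, >0.45 = specific binding) is the mean of the two arrays.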

Sequence | PBM 8-mer E-score
ACGTACCT | -0.184
CCTCACGC | -0.318
TGCCGCAA | 0.0457
CTCACCAG | -0.163
ACCAAGTC | -0.141
CGGTGCAA | -0.135
AGGAACAT | -0.142
TATGAGAA | 0.061
CTCAGCTA | 0.0433
AGAAACTA | 0.221
AACATTAG | 0.234
TACAAAAA | -0.0275
GCACAGGC | -0.253
CAGACGGC | -0.101
GACGTTGA | -0.199
CGGGCCGC | -0.275
AGCAGGCG | -0.287
ATTACCAG | 0.195
ACATCTCA | 0.0853
TTCTAGAA | 0.134
ACAACTGG | 0.0264
ACGGGTCC | -0.19
ACCGCGCG | -0.136
TATCCTGA | 0.129
ATAAGACG | 0.193

Sequence | PBM 8-mer E-score
GATATCCA | 0.035
ATCAAAAA | 0.228
CGTGACTC | -0.196
CCCTCCAC | -0.234
CAGCAGGG | -0.234
CGTCACAC | -0.104
ACGAAAGA | 0.0583
CTCGTAAA | 0.0756
CATGTTTC | 0.203
TGATTGAA | 0.00919
AGGCCCGA | -0.288
ATTTATCA | 0.301
CGCCCTAG | -0.24
CACGTGGA | -0.121
AACTGTCC | -0.0476
ATGACGCG | -0.172
CTCACTTA | 0.0555
AGACCGTA | -0.109
TTGAACAA | 0.153
AAAGTGTA | 0.198
TCGCTTAA | 0.0456
ACTAGATC | -0.0531
ATGCGTGG | -0.225
ACCTAACG | -0.0378
ATCCGTGA | -0.0681

Sequence | PBM 8-mer E-score
ATCTAAGG | -0.102
GACCTCGA | -0.0685
CCCGGCAG | -0.175
CAAGGATC | -0.31
CAGTGACA | -0.117
ATATAAAT | 0.45
AACCCAAA | 0.0509
ACTAGCTG | -0.0453
GAGCGGCA | -0.0736
CAAGCCCC | -0.255
CCCGCGAC | -0.15
AGTTAGCG | 0.0842
GTAACAGA | -0.0526
CGTTACAA | 0.185
CACTTAGA | 0.164
GGACTCAA | -0.172
ATAACGAG | 0.242
GGAACGCA | -0.0472
CTTATGAC | 0.0608
GAATTCGA | 0.0572
CGTTATTC | 0.24
AGCATGTA | 0.14
GCTGAGAA | 0.031
ACTTTTCC | 0.0904
GGTATACC | -0.102

Sequence | PBM 8-mer E-score
CACCGAGC | -0.273
GGGGACCA | -0.249
AGTGTTCC | -0.0184
CCATGCAC | -0.178
TATGAGCA | 0.021
ATAGAGAG | 0.188
TGTTGCAA | 0.234
CCTCACCG | -0.202
CCCCCGAC | -0.328
ACCGAGGT | -0.121
CGAATAAC | 0.207
GTGTTCAA | 0.0247
GAGCCAGC | -0.295
ACTTTAAA | 0.404
AGACGTGG | -0.352
AGTGCTCA | -0.0133
AAAGCGGC | -0.11
CTCTCTTA | 0.00753
CGAAGTTA | 0.24
AAGTCCTC | -0.0822
CAAGCTCA | -0.129
AGCGGTGG | -0.209
CGATTATA | 0.292
AATCCTGT | 0.106
GGTCCAAC | -0.213

Sequence | PBM 8-mer E-score
AATCGCGG | 0.0231
GACTGAAC | 0.0975
CGTCAGGA | -0.133
GATGTACA | 0.098
ACCTGGTG | -0.132
AAAGGAGT | 0.0119
AGATGTAT | 0.169
ACAGAATC | -0.129
CACCTGCC | -0.304
ACTGCGAC | -0.0469
ACACGTGA | -0.0971
TAACTCGA | 0.0525
AACTTGTC | 0.06
CAGTAGCG | -0.11
CTAGGTAA | 0.0421
ACCGCTAG | -0.0522
AAACGAGG | -0.163
ACAGCTCT | -0.047
AATCTGCG | -0.045
AACAGTAA | 0.226
ACTAGAGT | 0.11
CCCTTTAC | -0.133
AAAAAGTA | 0.154
ACTGTTAA | 0.225
CTCTAGAG | 0.00546

Sequence | PBM 8-mer E-score
AGGAAAAG | -0.115
GTCTGTCA | -0.113
CCCTCTGA | -0.326
CATCGTCA | -0.121
GTGGGCCA | -0.137
GTTCAGCA | -0.0245
ACGCCCGC | -0.224
AACTTTCG | 0.255
GATGACAC | -0.0924
CAACGATG | -0.0854
AATGGATA | 0.231
ATCGAGGC | -0.227
GGAAGTAC | 0.108
CTATCCTC | -0.0982
ATATCGGC | 0.177
TACCAGTA | 0.0885
GTCCCGAC | -0.101
ACCGACGA | -0.0844
GTGCTGAA | -0.00218
GGGTGGAA | -0.131
GGTCGTAC | -0.143
TATTAAAA | 0.41
GAAGACTC | -0.0651
CATTAGGA | -0.0108
CCCTTCCG | -0.317

Sequence | PBM 8-mer E-score
ATATATCC | 0.38
AGGTAGAT | -0.0384
ACCGCGGT | -0.134
ATTACAGC | 0.168
AACGCGAT | 0.0116
ATTAGAAT | 0.188
CGCCAGAG | -0.218
CTGCAAAA | 0.0192
ACGCATTG | -0.0106
GATCGTAA | 0.0333
AAAAGATG | 0.107
CAGAACCA | -0.0941
CCGAGATC | -0.206
AAAACCTT | 0.103
GACAAGAA | -0.0203
CCCAACTC | -0.0484
CAAGGTTC | -0.183
GACGTCGC | -0.221
CATGGGCC | -0.149
ACTTCGTA | 0.103
AGCGTCAG | -0.233
CCTGATGA | -0.121
AAGAATCG | 0.0557
GACAACGC | -0.147
ACTTACCC | 0.00851

Sequence | PBM 8-mer E-score
GGGGATGA | -0.216
CCCACACA | 0.059
ACGACCTG | -0.164
TAAGCCGA | -0.0711
AAGTGAGC | -0.042
ACTACCTC | -0.0495
GTAAGCTA | -0.0635
CAAACAAC | 0.108
ATAAACCC | 0.135
ACTTCTGA | 0.23
ACCTACCG | -0.236
CGCTGAAG | -0.192
CCGTTGCA | -0.14
ACGTGCAG | -0.108
CAATTGAA | 0.206
GTTATGAA | 0.17
CTGGATGC | -0.15
AACTCCTT | -0.0055
GAGTCATC | -0.278
ATGAAGGA | -0.101
ACCTCGCG | -0.226
CTCTTTGA | -0.0339
GCCACCCA | -0.102
ATCAATTG | 0.279
ATTATCGG | 0.224

Sequence | PBM 8-mer E-score
GGGAGTCA | -0.128
ACCCCGGG | -0.285
GCTCCATA | -0.0313
CGTGCTCC | -0.227
CTGCAAGA | 0.0151
ATAACCAT | 0.159
ACCCCATG | -0.0913
GACAGAAC | -0.0903
GACTGACA | -0.171
AAATCCGT | -0.176
GACTCTCC | -0.337
CAAAGAAA | 0.14
TTCCGGAA | 0.0697
CTACCGGC | -0.156
ACCTTGCG | -0.0997
AGAGTCCA | -0.28
ATTCGGTG | -0.00558
AAGCTACT | -0.143
AAAGTTAG | 0.353
